The whole screen tested about 310,000 compounds, of which about 14,000 (4.5%) showed an effect of 50% or more. Effects have a minus sign here. Some of the results follow.
Molecular target: human ether-à-go-go-related gene (hERG) potassium channel (human, UniProt Q12809)
Test: primary screen, population patch clamp on CHO cells stably expressing hERG
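Also: peak tail current of the secondary pulse compared with the same well before compound.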

human ether-à-go-go-related gene (hERG) potassium channel, sequence (Q12809 whole entry, looked up): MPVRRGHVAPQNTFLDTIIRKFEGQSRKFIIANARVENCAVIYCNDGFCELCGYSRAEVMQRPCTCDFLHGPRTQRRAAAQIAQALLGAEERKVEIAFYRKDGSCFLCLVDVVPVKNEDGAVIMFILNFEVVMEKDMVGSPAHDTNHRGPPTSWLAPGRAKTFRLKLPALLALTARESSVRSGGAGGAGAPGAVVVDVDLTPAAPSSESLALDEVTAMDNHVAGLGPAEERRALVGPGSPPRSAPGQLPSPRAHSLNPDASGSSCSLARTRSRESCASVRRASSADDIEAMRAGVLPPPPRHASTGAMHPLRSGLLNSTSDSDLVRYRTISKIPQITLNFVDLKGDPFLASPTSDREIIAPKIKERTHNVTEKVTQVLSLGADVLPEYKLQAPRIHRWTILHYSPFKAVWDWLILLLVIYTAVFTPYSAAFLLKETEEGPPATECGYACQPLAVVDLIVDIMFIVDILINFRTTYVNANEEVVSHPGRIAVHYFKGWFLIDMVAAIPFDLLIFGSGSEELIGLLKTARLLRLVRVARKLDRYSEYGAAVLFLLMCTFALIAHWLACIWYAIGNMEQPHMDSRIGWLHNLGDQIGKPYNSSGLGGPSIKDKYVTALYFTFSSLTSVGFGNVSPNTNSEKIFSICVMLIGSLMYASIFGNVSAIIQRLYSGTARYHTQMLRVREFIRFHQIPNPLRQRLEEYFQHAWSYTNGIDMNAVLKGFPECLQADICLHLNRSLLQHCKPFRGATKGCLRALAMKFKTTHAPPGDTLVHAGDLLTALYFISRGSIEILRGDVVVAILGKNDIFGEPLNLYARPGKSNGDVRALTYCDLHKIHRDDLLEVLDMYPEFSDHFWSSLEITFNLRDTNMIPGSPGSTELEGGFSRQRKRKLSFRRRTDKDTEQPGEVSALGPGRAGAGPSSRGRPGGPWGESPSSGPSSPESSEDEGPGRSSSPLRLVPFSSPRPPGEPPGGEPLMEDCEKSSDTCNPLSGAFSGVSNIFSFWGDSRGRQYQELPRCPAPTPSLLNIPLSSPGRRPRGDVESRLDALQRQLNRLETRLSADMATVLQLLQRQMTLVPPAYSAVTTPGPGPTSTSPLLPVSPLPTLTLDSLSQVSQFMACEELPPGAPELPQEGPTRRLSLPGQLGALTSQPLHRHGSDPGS

Row | SMILES | hERG current change (%, negative = inhibition) at 10uM [%]
1 | COc1cccc(CCc2nnc(CCC(=O)NC(C)c3c(C)nn(C)c3C)o2)c1 (stereo not drawn) | 14.1
2 | Cc1ccc2c(-c3csc(N)n3)c[nH]c2c1 | 19.3
3 | O=C(NCCNC(=O)c1cnccn1)c1ccc(Cl)c(Cl)c1 | -13.3
4 | COc1ccccc1C(=O)n1nc(-c2ccc(Cl)cc2)nc1N | -8.81
5 | CN(C)/C=C(\C#N)C(=O)N/N=C/c1ccc(Cl)cc1 | -29.8
6 | Cc1ccc(C(=O)Nc2ccc(C(=O)N/N=C/c3c[nH]c4ccccc34)cc2)cc1 | -15.8
7 | Cn1c(CNC(=O)OC(C)(C)C)nnc1SCC(=O)N1CCOCC1 | 8.91
8 | COc1ccc(C(=O)NCC2COc3ccccc3O2)cc1S(=O)(=O)N1CCOCC1 (stereo not drawn) | -40.7
9 | O=C(CSc1nnc(-c2cccs2)n1-c1ccccc1)NCC1CCCO1 (stereo not drawn) | -74.1
10 | CCCCn1c(SCC(=O)NCc2ccco2)nc2ccc(N3CCOCC3)cc2c1=O | -41.8
11 | Cn1c(=O)cc(OCC(=O)N2CCC(N3CCCCC3)CC2)c2ccccc21 | 12.2
12 | CCCn1c(C)cc(C(=O)Cn2nnc3ccccc3c2=O)c1C | -34.7
13 | O=C(Nc1ccc2ccccc2c1)c1ccccc1O | 24.6
14 | COc1ccccc1C(=O)NC(CCSC)C(=O)NCC(c1cccs1)N(C)C (stereo not drawn) | 2.41
15 | Cc1ccc(N(CC(=O)NCC2CCCO2)C(=O)CCC(=O)Nc2nccs2)cc1 (stereo not drawn) | 0.694
16 | Cc1ccccc1C(=O)N1CCC(C(=O)NC2CCCCC2)CC1 | 9.93
17 | COc1cccc(Nc2nc(-c3sc(N)nc3C)cs2)c1 | -18.2
18 | C/C(=N\NC(=O)c1ccncc1)c1ccc(NC(=O)c2ccc(Cl)cc2)cc1 | 11.2
19 | CN(Cc1nccs1)C(=O)c1ccc2nc(Cc3ccccc3F)oc2c1 | 0.701
20 | CCN(CC)CCC(c1ccc2c(c1)OCO2)c1c(OC)cc(OC)c2c(-c3ccccc3)cc(=O)oc12 (stereo not drawn) | -65.4
21 | N/C(=N\OC(=O)CCC1CCCC1)c1ccc([N+](=O)[O-])cc1 | -24.6

Row | SMILES | hERG current change (%, negative = inhibition) at 10uM [%]
22 | O=C1NC(C(F)(F)F)(C(F)(F)F)N=C2SC=CN12 | -0.905
23 | CCOC(=O)c1c(C)oc2c1c1c(c3ccccc32)OCN(Cc2ccccn2)C1 | 11.1
24 | O=C(Cc1ccccc1)N1CCN(S(=O)(=O)c2cccc([N+](=O)[O-])c2)CC1 | -22.2
25 | O=C(CSc1nnc2sc3ccccc3n12)c1ccco1 | -15.2
26 | Cc1cc(CNC(=O)c2ccc3oc(C(C)C)nc3c2)nn1C | 9.38
27 | Cc1ccc(-c2nn(-c3ccccc3)cc2C(=O)Nc2cccc(S(=O)(=O)N3CCOCC3)c2)cc1 | 4.64
28 | Cc1ccnc(NC(=O)CCC(=O)N(CC(=O)NC2CCCCC2)C2CCCC2)c1 | -16
29 | Cc1ccc(C(=O)OCC(=O)c2ccc[nH]2)s1 | -2.74
30 | COC(=O)c1ccc2c(c1)NC(=O)C(N1CCOCC1)S2 (stereo not drawn) | -7.25
31 | Cc1cc(NC(=O)c2ccc(N(C)S(=O)(=O)c3ccccc3)cc2)no1 | -11.5
32 | Cc1ccnc(NCc2cc(C)ccc2O)c1 | 12.2
33 | COC(CNC(=O)c1ccc(N2CCc3ccccc32)c([N+](=O)[O-])c1)OC | -13.9
34 | CN(/N=C/Cc1nnnn1-c1ccc(Cl)cc1)c1ccccc1 | -7.54
35 | CCCc1cc(C(=O)N2CCN(c3ccccc3C)CC2)cs1 | -25.9
36 | CCOC(=O)N1CCN(c2c(N3CCN(c4ccccn4)CC3)c(=O)c2=O)CC1 | -39
37 | Nc1n[nH]c(C2CC2)c1N=Nc1ccc(Cl)c(Cl)c1 | 7.85
38 | CC(C)C(=O)Nc1ccc(S(=O)(=O)N2CC3CC(C2)c2cccc(=O)n2C3)cc1 (stereo not drawn) | 2.87
39 | COc1ccc(S(=O)(=O)NCC2CCCN(C(=O)c3cccnc3)C2)cc1 (stereo not drawn) | 8.12
40 | Clc1ccc(OCc2cnc(Cl)s2)cc1 | -0.97
41 | CCOC(=O)c1c(/N=C/C2=C(O)CC(C)(C)CC2=O)sc(C(C)=O)c1C | 2.53
42 | CCCN(CCC)C(=O)/C=C/c1cccc([N+](=O)[O-])c1 | -34.5
